Data taken from paper PMC4336329 (PLoS ONE, 2015).
The whole screen tested about 310,000 compounds, of which about 14,000 (4.5%) showed an effect of 50% or more. Effects have a minus sign here. The list shows a part of the results.

What follows are compounds tested against human ether-à-go-go-related gene (hERG) potassium channel (human, UniProt Q12809) (assay: primary screen, population patch clamp on CHO cells stably expressing hERG).
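Note: peak tail current of the secondary pulse compared with the same well before compound.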

human ether-à-go-go-related gene (hERG) potassium channel, sequence (Q12809 whole entry, looked up): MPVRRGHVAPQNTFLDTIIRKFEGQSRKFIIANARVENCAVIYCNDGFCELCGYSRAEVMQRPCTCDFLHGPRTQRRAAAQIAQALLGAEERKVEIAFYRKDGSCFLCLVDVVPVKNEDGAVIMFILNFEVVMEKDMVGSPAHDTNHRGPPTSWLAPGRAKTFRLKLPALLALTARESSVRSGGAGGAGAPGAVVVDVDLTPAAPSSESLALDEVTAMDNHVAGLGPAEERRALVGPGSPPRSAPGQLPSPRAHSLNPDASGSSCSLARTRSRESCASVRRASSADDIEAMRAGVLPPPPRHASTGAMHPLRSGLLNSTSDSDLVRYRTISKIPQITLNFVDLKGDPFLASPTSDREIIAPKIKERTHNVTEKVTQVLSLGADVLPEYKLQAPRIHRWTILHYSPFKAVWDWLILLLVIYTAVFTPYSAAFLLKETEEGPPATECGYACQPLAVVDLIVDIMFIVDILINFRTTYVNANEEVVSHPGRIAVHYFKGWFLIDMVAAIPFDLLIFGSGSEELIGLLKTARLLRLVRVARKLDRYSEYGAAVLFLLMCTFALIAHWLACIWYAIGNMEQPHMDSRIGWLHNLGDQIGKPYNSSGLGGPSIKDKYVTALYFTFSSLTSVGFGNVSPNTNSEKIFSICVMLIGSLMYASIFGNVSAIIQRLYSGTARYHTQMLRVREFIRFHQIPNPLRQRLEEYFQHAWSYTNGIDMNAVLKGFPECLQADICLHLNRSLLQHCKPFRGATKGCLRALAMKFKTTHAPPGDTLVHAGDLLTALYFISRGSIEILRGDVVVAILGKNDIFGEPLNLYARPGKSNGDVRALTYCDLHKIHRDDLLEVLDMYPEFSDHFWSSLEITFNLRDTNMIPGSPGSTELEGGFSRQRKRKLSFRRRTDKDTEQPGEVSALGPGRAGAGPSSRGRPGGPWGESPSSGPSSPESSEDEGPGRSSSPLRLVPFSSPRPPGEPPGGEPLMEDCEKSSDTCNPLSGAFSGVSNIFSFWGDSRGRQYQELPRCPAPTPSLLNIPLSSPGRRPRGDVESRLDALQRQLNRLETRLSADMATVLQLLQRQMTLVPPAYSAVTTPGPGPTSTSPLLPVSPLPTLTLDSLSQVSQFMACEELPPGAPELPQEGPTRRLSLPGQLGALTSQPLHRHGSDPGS

Structure (SMILES)	hERG current change (%, negative = inhibition) at 10uM
COc1ccc(CCNC(=O)CCCn2nc(C)n3ccnc3c2=O)cc1OC	-14.2%
CCC(C)N(C(=O)COC(=O)c1ccc(=O)n(Cc2ccccc2)n1)C1CCS(=O)(=O)C1 (stereo not shown)	-24.3%
Nc1nc(CSc2ncccn2)nc(Nc2ccccc2)n1	1.55%
COc1cccc(CNC(=O)Cc2nc3nc(C)cc(C)n3n2)c1	-3.48%
O=C1OCCC1Sc1ncnc2sccc12 (stereo not shown)	-14.2%
CCOC(=O)C1=NN(c2ccccc2)C2=NC(C)=C(C(=O)OC)C(c3cccs3)N12 (stereo not shown)	-5.66%
Cc1cc(C)cc(C(=O)NC(=S)Nc2ccc3[nH]c(=O)[nH]c3c2)c1	7.87%
CC(Cl)C(=O)Nc1c2c(nn1-c1ccccc1)CSC2 (stereo not shown)	1.56%
COc1ccc(CCNC(=O)C2CCN(C(=O)c3ccc(OC)c(OC)c3)CC2)cc1	4.54%
Cc1cc(=O)oc2cc(OCC(=O)N3CCc4ccccc4C3)ccc12	-24.5%
O=C([C@H](O)c1ccccc1)N1CCC[C@H]1CO	8.33%
COC(=O)CSC1=NN1c1cc(C)nc(N)n1	-4.21%
COc1ccc(S(=O)(=O)Nc2cccnc2)c(Cl)c1Cl	2.65%
CC1(C2CC2)NC(=O)N(CC(=O)Nc2ccccc2-c2ccccc2)C1=O (stereo not shown)	22.5%
CC(C)CN(C(=O)c1cc(Cl)nc2ccccc12)c1c(N)n(Cc2ccccc2)c(=O)[nH]c1=O	5.45%
CCOc1cccc(/C=N/N2C(C)CCCC2C)c1O (stereo not shown)	10.9%
O=C(N/N=C\c1cn[nH]c1-c1ccccc1)c1cccnc1	-1.27%
O=C1CNC(c2ccccc2Cl)c2cc(Br)ccc2N1 (stereo not shown)	11.5%
COc1cc(Cl)c(C)cc1NC(=O)COc1cc(C)nc(C(C)C)n1	4.03%
CCCCOCCCNC(=O)N[C@@H](CC(C)C)C(=O)O	8.87%
CC1Cc2ccccc2N1S(=O)(=O)c1cccc(C(=O)Nc2cccnc2)c1 (stereo not shown)	-60.2%
O=C(CSc1nccn1-c1ccc(F)cc1)NCc1ccc2c(c1)OCO2	-13.1%
O=C(CSc1n[nH]c(-c2ccncc2)n1)Nc1ccccc1Cl	9.56%
CCN(CC)CCOC(=O)C(Cc1ccco1)Cc1cccc2ccccc12.O=C(O)C(=O)O (stereo not shown)	-76.8%
Cc1cc(C)nc(SCc2cn3c(C)cccc3n2)n1	6.36%
